The source of these data is PubChem BioAssay (NCI).

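These data come from cells grown in 96-well plates and exposed to compound for 48 hours at five concentrations. Here, GI50 denotes the concentration required for 50% inhibition of growth.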 For part of its entries the source gives two or more results. This is not the full list of results. The source may hold further records. For part of these data: Records of one sample usually come from different ranges of test concentrations, not given here; some values may only mark the edge of a range.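 TGI: concentration producing complete growth inhibition.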 For part of these data: The records of an entry are repeats across runs, samples, wells, individuals or studies. Brackets tell where a record comes from. Letters hold for one entry only. Some results are limits rather than exact numbers.

Some test systems named below: SF-539 CNS; UACC-62 melanoma; RPMI-8226 leukemia; CCRF-CEM leukemia; DMS 114 small cell lung; SK-OV-3 ovarian; DMS 273 small cell lung; HT29 colon; U251 CNS; RXF 393 renal; OVCAR-5 ovarian; SNB-75 CNS; SK-MEL-5 melanoma; SF-295 CNS; SN12C renal; LOX IMVI melanoma; A549 NSCLC; IGROV1 ovarian; COLO 205 colon; SR leukemia; SK-MEL-28 melanoma; KM12 colon; HCT-116 colon; UO-31 renal; SNB-19 CNS; MOLT-4 leukemia; HOP-92 NSCLC; OVCAR-3 ovarian; NCI-H23 lung; UACC-257 melanoma; EKVX NSCLC; HOP-62 NSCLC; A498 renal; M14 melanoma; NCI-H522 lung.

Holding throughout (assay): inhibition of tumour cell growth, NCI panel, 48 h

On to `Nc1nc(N)c2nc(CNc3ccc(C(=O)NC(CCNC(=O)c4ccccc4C(=O)O)C(=O)O)cc3)cnc2n1` (stereo not given), for which the TGI in the test with SF-539 CNS is 622 nM and > 100 µM; with UACC-62 melanoma it was 478 nM and > 100 µM.

`O=C(NC(Cc1ccccc1)C(=O)CCl)OCc1ccccc1` (stereo not given): in the test on RPMI-8226 leukemia, the TGI is 7.58 µM [sample A] and > 100 µM [sample B].

On to `COc1ccc(/C=C/C(=O)c2ccccc2)cc1OC`, for which, in the test on CCRF-CEM leukemia, the TGI is > 100 µM [sample A] and 8.3 µM [sample B].

Consider `NC(CS)C(=O)NCCNc1ccc(NCCNC(=O)C(N)CS)c2c1C(=O)c1c(O)ccc(O)c1C2=O` (stereo not given), for which the TGI in the test with DMS 114 small cell lung was 12.1 nM and 125 nM; in the test on SK-OV-3 ovarian, 1.05 µM and 81.5 nM; with DMS 273 small cell lung it was 12.2 nM and 440 nM.

As to `COC1C(C)OC(OC2CC(C)(O)Cc3cc4c(c(O)c32)C(=O)c2c(O)cc3c(c2C4=O)OC2OC3(C)C(O)C(N(C)C)C2O)C(OC)C1(C)OC` (stereo not given), the TGI is 6.44 nM, 253 nM, 138 nM in the test with SF-539 CNS; 8.1 nM, 6.24 µM, 1.13 µM with HT29 colon; 5.64 nM, 7.24 µM, 1.45 µM with U251 CNS; 6.67 nM, 267 nM, 82.2 nM in the test with RXF 393 renal; 5.8 nM, 1.42 µM, 1.16 µM in the test with OVCAR-5 ovarian; 6.43 nM, 302 nM, 85.1 nM with SNB-75 CNS. The TGI in the test with SK-MEL-5 melanoma was 5.78 nM, 473 nM, 88.6 nM; with SF-295 CNS, 7.99 nM, 703 nM, 293 nM; in the test with LOX IMVI melanoma it was 4.09 nM, 757 nM, 3.36 µM; in the test on A549 NSCLC, 488 nM [1 test] and 12.7 µM [mean of 5 tests]; in the test on COLO 205 colon, 7.17 nM, 263 nM, 110 nM; with SR leukemia, 7.15 nM and 184 nM. Moreover, the TGI with SK-MEL-28 melanoma is recorded as 7.81 nM, 297 nM, 252 nM; with KM12 colon, 8.45 nM, 1.71 µM, 2.1 µM; in the test on HCT-116 colon, 6.13 nM, 1.11 µM, 5.67 µM; with UO-31 renal, 8.38 nM, 4.53 µM, 2.32 µM; in the test with SNB-19 CNS it was 5.49 nM, 4.96 µM, 2.08 µM; in the test on MOLT-4 leukemia, 9.16 nM, 464 nM, 428 nM. Also, the TGI in the test on UACC-62 melanoma was 5.42 nM, 118 nM, 39.2 nM; in the test on HOP-92 NSCLC it was 8.83 nM, 322 nM, 530 nM; in the test on RPMI-8226 leukemia, 4.28 nM, 207 nM, 206 nM; in the test on OVCAR-3 ovarian, 8.25 nM, 1.25 µM, 720 nM; in the test on NCI-H23 lung, 6.88 nM, 288 nM, 166 nM; with UACC-257 melanoma, 8.13 nM, 389 nM, 147 nM. In addition, the TGI with A498 renal is 7.02 nM, 567 nM, 107 nM; with M14 melanoma it was 6.75 nM and 685 nM; in the test on NCI-H522 lung, 7.43 nM, 495 nM, 204 nM. The GI50 in the test with OVCAR-5 ovarian was 3.48 nM and 117 nM; with SK-MEL-5 melanoma, 53.2 nM [mean of 4 tests] and 4.51 nM [mean of 5 tests]; in the test on SN12C renal, 96.8 nM [mean of 4 tests] and 5.52 nM [mean of 5 tests]; in the test on IGROV1 ovarian, 72.6 nM [mean of 3 tests] and 4.15 nM [mean of 5 tests]; in the test on COLO 205 colon it was 54.1 nM [mean of 3 tests] and 5.04 nM [mean of 5 tests]; in the test with UO-31 renal, 1.39 µM [mean of 3 tests] and 6.86 nM [mean of 5 tests]. In addition, the GI50 in the test with SK-OV-3 ovarian was 114 nM [mean of 3 tests] and 4.07 nM [mean of 4 tests]; with RPMI-8226 leukemia, 30.4 nM [mean of 3 tests] and 2.16 nM [mean of 4 tests]; with EKVX NSCLC, 157 nM [mean of 3 tests] and 5.54 nM [mean of 4 tests]; in the test with HOP-62 NSCLC it was 153 nM [mean of 4 tests] and 4.55 nM [mean of 5 tests]; with A498 renal, 4.18 nM and 172 nM.
